Test results as given in ChEMBL document CHEMBL4888484, “Replenishing the malaria drug discovery pipeline: Screening and hit evaluation of the MMV Hit Generation Library 1 (HGL1) against asexual blood stage Plasmodium falciparum ,using a nano luciferase reporter read-out” (2022).
Among all 150,000 compounds or so, about 540 (0.36%) showed an effect of 50% or more. The list shows a part of the results.

The compounds below were run on Plasmodium falciparum (assay: Primary screen in NF54 nanoGlo assay, in single point, at 2uM, 72h; a lower Z score goes with more inhibition). Settings: timepoint 72 hour.
Assay type: functional, Erythrocyte
`CC(C)(C)OC(=O)N[C@@H]1CCC[C@H]1CC(=O)Nc1ccc(N2CCC(O)CC2)c(C#N)c1` was tested, and the “% Inhibition” value was 1% and the Z score was -0.15. For `c1coc(-c2nc(C3CCOCC3)nn2-c2cnc3ccccc3n2)c1`, the “% Inhibition” value was 8% and the Z score was -1.03. For `Cc1ccc(NC(=O)Cn2ccn3nc4c(c3c2=O)CCCCC4)c(C)c1`, the “% Inhibition” value was -4% and the Z score was 0.57. With `CCOc1ccccc1CNC(=O)c1cnc(-c2cccnc2)nc1` the “% Inhibition” value was -27% and the Z score was 3.83. In the case of `Cn1nc(-c2c(-c3ccccc3)ncn2[C@H]2CCNC2)c2c(Cl)cccc21`, the “% Inhibition” value is reported as -14% and the Z score is reported as 2.59. `Cc1ccc(C)c([C@@H]2CCCN2C(=O)c2cnnn2C)c1` was tested, and the “% Inhibition” value was -5% and the Z score was 1. For `Cn1cc(S(=O)(=O)N2CCCCCC2)cc1C(=O)Nc1cccc(F)c1`, the “% Inhibition” value was -14% and the Z score was 2.01. `CC(C)(C)NC(=O)CC1(NC(=O)OC(C)(C)C)CCC1` was tested, and the “% Inhibition” value was -10% and the Z score was 2.01. For `COc1cc(C)cc(OC)c1-c1cc2nc[nH]c2nc1C`, the “% Inhibition” value was -11% and the Z score was 1.3. For `NS(=O)(=O)c1ccccc1CNC(=O)N1CCCC2(CCCC2)CC1`, the “% Inhibition” value was -9% and the Z score was 1.58. For `O=C(Nc1cc(Oc2ccc(F)cc2)cc(Oc2ccc(F)cc2)c1)c1nn2c(C(F)(F)F)cc(-c3cccs3)nc2c1Cl`, the “% Inhibition” value was -6% and the Z score was 0.99. With `CCOc1ccc(-c2cc3c(N4CCC(C(=O)NCc5ccc6c(c5)OCO6)CC4)nccn3n2)cc1` the “% Inhibition” value was 9% and the Z score was -0.92. For `CC1CCCCC1NC(=O)CON=C(N)Cc1ccccc1Cl` (stereo not given), the “% Inhibition” value was 8% and the Z score was -1.04. `CCN1CCC([C@H]2c3nccn3CCCN2Cc2ccccc2)CC1` was tested, and the “% Inhibition” value was 3% and the Z score was -0.49. In the case of `CN(Cc1cscn1)C(=O)Nc1nc2ccccc2s1`, the “% Inhibition” value is reported as -2% and the Z score is reported as 0.38. With `CCC(CC)S(=O)(=O)NC(=O)c1ccccc1` the “% Inhibition” value was -12% and the Z score was 1.24. In the case of `COc1ccc(C(C)(C)C)cc1S(=O)(=O)NCC(C)C`, the “% Inhibition” value is reported as 6% and the Z score is reported as -0.76. `Fc1ccc(COc2ncccn2)cc1` was tested, and the “% Inhibition” value was -17% and the Z score was 2.49. `Cc1nn(C)c(C)c1CN[C@@H]1CCCc2c(F)cc(F)cc21` was tested, and the “% Inhibition” value was -5% and the Z score was 0.6. For `O=C(Cn1c(=O)c2nncn2c2ncccc21)NCc1ccc(Cl)cc1`, the “% Inhibition” value was -11% and the Z score was 1.82. In the case of `Cc1ccc(C(=O)NC(c2ccccn2)[C@H]2C[C@H](O)C2)cc1O` (stereo not given in full), the “% Inhibition” value is reported as -13% and the Z score is reported as 2.2. For `CC(C)CCOC(=O)[C@H](C)N1C(=O)CCC1=O`, the “% Inhibition” value was 4% and the Z score was -0.33. In the case of `CC(C)[C@@H](N)C(=O)NCCc1ccc(F)cc1`, the “% Inhibition” value is reported as -2% and the Z score is reported as 0.35. With `O=C(NCc1nc2cc(Br)c[nH]c-2n1)c1ccccc1` the “% Inhibition” value was -8% and the Z score was 1.07. In the case of `C[C@]1(c2cccnc2)NC(=O)N(Cc2ccc(F)c(Cl)c2)C1=O`, the “% Inhibition” value is reported as -2% and the Z score is reported as 0.31. With `CCN1C[C@H](NS(=O)(=O)Cc2ccccc2)[C@@H](OC)C1` the “% Inhibition” value was -17% and the Z score was 2.01. For `Fc1ccccc1CNc1nnc2n1CCCCC2`, the “% Inhibition” value was -31% and the Z score was 3.67. `O=C(c1ccc2ncsc2c1)N1CCC[C@H]1c1ccc2c(c1)OCCCO2` was tested, and the “% Inhibition” value was 14% and the Z score was -1.73. With `COc1cccc(-n2c(=O)c(C(=O)NCc3ccccc3Cl)c(O)c3cccnc32)c1` the “% Inhibition” value was -10% and the Z score was 1.34. For `CCn1cc(-c2ccc(Cl)cc2)cc1C(=O)NCc1ccccn1`, the “% Inhibition” value was -2% and the Z score was 0.24. In the case of `CCOc1cc(CNc2ccc(Oc3ccccc3)cc2)cc(Cl)c1OCc1ccccc1Cl`, the “% Inhibition” value is reported as 30% and the Z score is reported as -3.34. In the case of `Cc1nc([C@H](C)N(C)C(=O)c2n[nH]c3c2COCC3)c(C)s1`, the “% Inhibition” value is reported as -22% and the Z score is reported as 2.39. In the case of `CC(=O)N(CCc1nc(-c2ccc(C)s2)cs1)C(C)C`, the “% Inhibition” value is reported as -3% and the Z score is reported as 0.47. In the case of `C[C@H](NC(=O)CCc1ccncc1)c1ccc(-c2cccnc2)cc1`, the “% Inhibition” value is reported as 1% and the Z score is reported as -0.16. `O=C(NC[C@@H]1CCCO1)c1cc(COc2cncc(Cl)c2)on1` was tested, and the “% Inhibition” value was -16% and the Z score was 1.65. For `NCCCn1cc(-c2ccc(OCC(F)(F)F)cc2F)cn1`, the “% Inhibition” value was 7% and the Z score was -1.34. For `COc1ccc(C)cc1NC(=O)[C@H]1CCCN(c2cn[nH]c(=O)c2)C1`, the “% Inhibition” value was 36% and the Z score was -4.08. `COc1ncc(Br)c2ncccc12` was tested, and the “% Inhibition” value was -11% and the Z score was 2.1. In the case of `CCOc1ccc(NC(=O)Cc2nc(-c3cccnc3)n[nH]2)cc1`, the “% Inhibition” value is reported as -18% and the Z score is reported as 2.9. For `CC1CCN(C(=O)c2nc[nH]c2C(=O)NC2CCCCC2)CC1`, the “% Inhibition” value was 15% and the Z score was -1.7. For `CC(C)n1cnnc1Cn1ncc(N(C)C)cc1=O`, the “% Inhibition” value was 0% and the Z score was 0.01. `c1ccc(-c2noc(-c3nnc(NCCN4CCOCC4)c4ccccc34)n2)cc1` was tested, and the “% Inhibition” value was 7% and the Z score was -0.83. In the case of `CC(NC(=O)NCc1ccccc1)C1CCCO1` (stereo not given), the “% Inhibition” value is reported as 11% and the Z score is reported as -1.43. With `CC(N)CC(=O)N1CCCC2(CCCc3ccccc32)C1` (stereo not given) the “% Inhibition” value was 2% and the Z score was -0.33. In the case of `CCn1cc(-n2cnc(CCNC(C)=O)c2)c(C)n1`, the “% Inhibition” value is reported as -3% and the Z score is reported as 0.52. `O=C(NCC1(c2ccncc2)CC1)c1ccc(CO)cc1` was tested, and the “% Inhibition” value was 0% and the Z score was 0.07. In the case of `Cc1nc(N2CCOCC2)sc1-c1nnc2n1CC(C)(C)CC2`, the “% Inhibition” value is reported as -6% and the Z score is reported as 1.12. `CCOC(=O)C1CCN(c2nc(-c3ccccc3F)c3c(N)n(C)nc3n2)CC1` was tested, and the “% Inhibition” value was -6% and the Z score was 1. `Cc1nccc(N2CCN(c3nccn(C)c3=O)CC2)n1` was tested, and the “% Inhibition” value was -3% and the Z score was 0.53. With `CCc1cc(C(=O)N2CCC3(CCC(=O)N(Cc4cccnc4)C3)CC2)ccn1` the “% Inhibition” value was -6% and the Z score was 0.96. In the case of `CO[C@H]1CN(c2ccc(C)cc2)C12CCN(C(=O)c1ccnn1C)CC2`, the “% Inhibition” value is reported as -15% and the Z score is reported as 1.92. For `Cc1[nH]nc2c1[C@H](c1cnn(C)c1)c1c(ncn3nc(-c4c(Cl)c(C(F)(F)F)nn4C)nc13)O2`, the “% Inhibition” value was 4% and the Z score was -0.51. In the case of `O=S1(=O)CC[C@H](N2CCCCCC2)C1`, the “% Inhibition” value is reported as -14% and the Z score is reported as 1.68. With `CN[C@@H](C(=O)OC)c1cc(F)c(F)c(F)c1` the “% Inhibition” value was 4% and the Z score was -0.54. In the case of `CC(C)C[C@H]1NC(=O)c2cc(F)ccc2OCCn2cc(nn2)CCN(Cc2cscn2)CCNC1=O`, the “% Inhibition” value is reported as -11% and the Z score is reported as 2.09. With `Cn1nccc1C(=O)N1CC[C@H](Cc2noc(C3CC3)n2)C1` the “% Inhibition” value was -6% and the Z score was 0.8. For `COc1ccc(Cc2nc3c4cnn(-c5cccc(F)c5)c4ncn3n2)cc1`, the “% Inhibition” value was 13% and the Z score was -1.47. With `COc1ccc(CN(C)[C@H]2CCc3nn(C)c(=O)n3CC2)cc1Cn1cccn1` the “% Inhibition” value was -6% and the Z score was 0.99. In the case of `Cc1nc2c(s1)CCC[C@@H]2NC(=O)c1ccc2c(c1)OCO2`, the “% Inhibition” value is reported as -6% and the Z score is reported as 1.18. With `C[C@@H](c1cc2ccccc2[nH]1)N(C)C(=O)c1ccc(CCC(C)(C)O)cc1` the “% Inhibition” value was -12% and the Z score was 2.34. `Clc1cnc(N2CCCC3(C2)OCCO3)c(Cl)c1` was tested, and the “% Inhibition” value was 2% and the Z score was -0.37. With `O=S(=O)(Cc1cccc(C(F)(F)F)c1)Nc1ccon1` the “% Inhibition” value was -9% and the Z score was 1.18. In the case of `O=C(CCn1ccc2ccccc21)N1CCCC1`, the “% Inhibition” value is reported as -10% and the Z score is reported as 1.31. `O=c1cccc2n1CC1CC2CN(c2nc(NC3CCCCC3)nc(N3CCOCC3)n2)C1` (stereo not given) was tested, and the “% Inhibition” value was 2% and the Z score was -0.32. `CC(C)c1scnc1C(=O)N[C@@H](C)c1ccccn1` was tested, and the “% Inhibition” value was 6% and the Z score was -0.69. For `COc1cccc(C(=O)N2[C@H](C(=O)NCc3ccccn3)COC23CCN(C(=O)c2ccc(Cl)c(Cl)c2)CC3)c1`, the “% Inhibition” value was -9% and the Z score was 1.29. With `Cc1cccc(N2CCN(C(=O)Nc3nc(C)c(C)o3)CC2)c1C` the “% Inhibition” value was -14% and the Z score was 2.79. With `COc1ccc(-c2ncnc(N3CCN(C)CC3)c2N)cc1` the “% Inhibition” value was 5% and the Z score was -0.68. With `Cc1csc([C@H](C)NC(=O)c2coc(COc3cccc4cccnc34)n2)n1` the “% Inhibition” value was 2% and the Z score was -0.22. With `CCS(=O)(=O)N1CCC[C@H]1c1cccs1` the “% Inhibition” value was -4% and the Z score was 0.74. For `O=C(N[C@@H]1COCC[C@@H]1OCc1ccccc1)c1ccon1`, the “% Inhibition” value was -5% and the Z score was 1.06. With `Cc1ccccc1-c1nc(N)n(C(=O)C2CCCCC2)n1` the “% Inhibition” value was -4% and the Z score was 0.67. `O=C(c1cc(C2CC2)[nH]n1)N1CCCCC1` was tested, and the “% Inhibition” value was -13% and the Z score was 1.13. With `CCC[C@H]1CN(Cc2ccc3cn[nH]c3c2)CCO1` the “% Inhibition” value was -22% and the Z score was 3.16. In the case of `CCOCCCNC(=O)[C@@H](c1ccc(OC)cc1)N(Cc1ccc2c(c1)OCO2)C(=O)c1ccccc1O`, the “% Inhibition” value is reported as -4% and the Z score is reported as 0.62. `Cc1ccc(NS(=O)(=O)c2cc(-c3ccno3)oc2C)c(C)c1` was tested, and the “% Inhibition” value was -10% and the Z score was 1.18. For `O=C(O)c1nc2ccccc2cc1C1CC1`, the “% Inhibition” value was -2% and the Z score was 0.38. `Cc1[nH][nH]c(=O)c1CC(=O)NCc1ccc2sccc2c1` was tested, and the “% Inhibition” value was -13% and the Z score was 2.17. For `Cc1cc(=O)c(C(=O)Nc2ccc(CN3CCC[C@H](C)C3)cc2)c[nH]1`, the “% Inhibition” value was -5% and the Z score was 0.6. `CC(C)OCCCC(=O)N(C)c1ccnn1C` was tested, and the “% Inhibition” value was -10% and the Z score was 1.39. With `O=C(CCn1cncn1)N(Cc1ccoc1)C1CCCCC1` the “% Inhibition” value was -2% and the Z score was 0.41. For `C[C@H](CCC(=O)Nc1cc(F)c(F)c(F)c1)[C@H]1CC[C@H]2[C@@H]3CC[C@@H]4C[C@H](O)CC[C@]4(C)[C@H]3C[C@H](O)[C@]12C`, the “% Inhibition” value was -7% and the Z score was 0.86. For `C[C@H](O)C1CCN(C(=O)Cc2ccon2)CC1`, the “% Inhibition” value was 0% and the Z score was -0.05. For `CCOc1ncccc1C(=O)N[C@H]1C[C@@H](c2cc(NC)ncn2)C1`, the “% Inhibition” value was -7% and the Z score was 0.91. With `CCCCN(C)C(=O)Nc1cc(OC)ncn1` the “% Inhibition” value was -5% and the Z score was 0.78.
